Consider four compounds from the supplement of paper PMC4604168 (melanoma cell lines).

Some test systems named below: WM115; WM1716; WM1745; WM3526; WM3619; WM451Lu.
Test in all cases: cell count relative to DMSO control; melanoma cells; higher = more viable cells
Details in all cases: library dose: low library concentration; 72 h

Molecules are shown by their SMILES. The list shows a part of the results. Single values are uncertain, as repeats are few or missing.
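Note: cell number obtained by counting DAPI-stained nuclei in high-throughput microscope images with image analysis software, screen run in 1,536-well plates.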

Turning to `O=C(/C=C/c1cccnc1)NCCCCC1CCN(C(=O)c2ccccc2)CC1` + O=S(=O)(c1ccccc1)N(CC(F)(F)F)c1ccc(C(O)(C(F)(F)F)C(F)(F)F)cc1 [T0901317] (first compound 0.01 µM, partner dose 1.4 µM), the cell count was found to be 83.9% in the experiment on WM115; 91.8% in the experiment with WM1716; 85.3% in the experiment on WM1745; 99.9% in the experiment with WM3526; 71.7% with WM3619; 140% with WM451Lu.
On to `CC1(C)CCC(c2ccc(Cl)cc2)=C(CN2CCN(c3ccc(C(=O)NS(=O)(=O)c4ccc(N[C@H](CCN5CCOCC5)CSc5ccccc5)c(S(=O)(=O)C(F)(F)F)c4)cc3)CC2)C1` + Cn1sc(=O)n(Cc2ccccc2)c1=O [TDZD-8] (first compound 0.4 µM, partner dose 0.4 µM), for which the cell count came out at 87.3% in the experiment with WM115; 70.2% in the experiment with WM1716; 13.5% in the experiment with WM1745; 85.6% in the experiment on WM3526; 96.9% in the experiment on WM3619; 82.6% in the experiment on WM451Lu.
As for `CC1(C)CCC(c2ccc(Cl)cc2)=C(CN2CCN(c3ccc(C(=O)NS(=O)(=O)c4ccc(N[C@H](CCN5CCOCC5)CSc5ccccc5)c(S(=O)(=O)C(F)(F)F)c4)cc3)CC2)C1` + COCC[n+]1c2c(n(Cc3cnccn3)c1C)C(=O)c1ccccc1C2=O [YM155] (first compound 0.4 µM, partner dose 0.0004 µM), the cell count in the experiment with WM115 turned out to be 83.6%; with WM1716 it was 66.4%; in the experiment on WM1745, 9.39%; with WM3526, 95.9%; with WM3619, 66.5%; with WM451Lu, 59.1%.
For the compound `CC1(C)CCC(c2ccc(Cl)cc2)=C(CN2CCN(c3ccc(C(=O)NS(=O)(=O)c4ccc(N[C@H](CCN5CCOCC5)CSc5ccccc5)c(S(=O)(=O)C(F)(F)F)c4)cc3)CC2)C1` + Cc1ccc(NC(=O)c2cccc(N(C)C)c2)cc1NC(=O)c1ccc(O)cc1 [ZM336372] (first compound 0.4 µM, partner dose 2 µM), the cell count with WM115 was found to be 90.2%; in the experiment on WM1716, 78.3%; with WM1745, 7.82%; with WM3526, 87.1%; in the experiment on WM3619, 48.5%; with WM451Lu it was 124%.
